Experimental data taken from PubChem BioAssay AID624202 (National Center for Advancing Translational Sciences (NCATS), 2012).
Screen size: about 380,000 compounds; about 4,000 (1.1%) were called active. This list was built around the results that the source calls inconclusive (neither active nor inactive); the mix of calls is not that of the screen. The call rests on the fitted dose curve; in most records, active means well fitted activation curve with a large enough effect; inconclusive means small, poorly fitted or top-dose-only effect; inactive means no such curve, though single readings can be large or run the other way. Potencies of inconclusive entries are doubtful fits and often do not repeat.
Potency means the concentration at half of the fitted maximal effect; tags describe the fitted curve by direction and shape.

Test: qHTS Assay to Identify Small Molecule Activators of BRCA1 Expression; further: nearly all actives have a fitted effect of over 80% in size
Conditions: MCF7-BRCA1-FFLuc reporter, luminescence, 48 h; series mostly up to 46.1 µM
Procedure, shortened: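 Using MCF7 cells harboring a BRCA1 firefly luciferase reporter, plated 2 h before compound pinning, the screen measured luminescence after 48 h incubation. Responses were normalized to DMSO and 10 microM genistein, then fitted for concentration-effect.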
For `COc1ccc(CN2CCN(C(=O)c3cccc4ccccc34)CC2)cc1OC`, the Potency was “inactive”.
For `CCn1c(-c2csc3c2CCC(C)C3)n[nH]c1=S` (stereo unspecified), the Potency was “inactive”.
In the case of `CCCOc1ccc(C2=CC(=O)C[C@H](c3ccc(OC)cc3)C2)cc1`, the Potency is reported as inconclusive: 12.6 µM [activator, partial curve, poor fit].
For `CCN(C)C1CN(Cc2cn(Cc3ccc(F)cc3)nn2)S(=O)(=O)C1` (stereo unspecified), the Potency was “inactive”.
In the case of `COc1ccc(C(=O)COC(=O)C2CCN(c3ccc(C(F)(F)F)cn3)CC2)c(OC)c1`, the Potency is reported as “inactive”.
With `O=C(CCCc1ccccc1)c1ccccc1` the Potency was inconclusive: 15.8 µM [activator, partial curve, poor fit].
With `COc1ccc(C(=O)Nc2ccccc2C(=O)Nc2ccccc2)cc1` the Potency was inconclusive: 6.31 µM [activator, partial curve, poor fit].
In the case of `CC1=C(c2ccc(C(C)C)cc2)S(=O)(=O)N=C1N1CCN(C(=O)c2ccco2)CC1`, the Potency is reported as “inactive”.
For `O=C1CN(c2ccccc2)C(=S)N1C(=O)c1ccccc1`, the Potency was active: 7.08 µM.
In the case of `CCCCC(=O)Nc1cccc(-c2cn3ccccc3n2)c1`, the Potency is reported as inconclusive: 7.08 µM [activator, partial curve, poor fit].
With `O=C(Nc1cc(Cl)ccc1N1CCCCC1)c1cccs1` the Potency was “inactive”.
With `COc1ccc(-c2cn3cccnc3n2)cc1Br` the Potency was active: 11.2 µM.
For `CCC(=O)NCCc1nc2cc(NC(=O)c3ccccc3OC)ccc2n1C`, the Potency was inconclusive: 17.8 µM [activator, partial curve, poor fit].
For `CCN1CCN(S(=O)(=O)c2cc(C)c(OC)cc2C)CC1`, the Potency was inconclusive: 35.5 µM [activator, single point].
In the case of `Cc1ccnc2ccc(-c3nc4ccccc4o3)cc12`, the Potency is reported as inconclusive: 3.98 µM [activator, partial curve, poor fit].
In the case of `O=C1NC(=O)/C(=C/c2cccc3ccccc23)S1`, the Potency is reported as inconclusive: 12.6 µM [activator, partial curve, poor fit].
For `CCOc1ccc(-c2nnc(N)s2)cc1`, the Potency was inconclusive: 7.08 µM [activator, partial curve, poor fit].
In the case of `COc1cc(N)ccc1NC(=O)c1cc2ccccc2o1`, the Potency is reported as inconclusive: 4.47 µM [activator, full curve, poor fit].
With `CC(C)C(=O)Nc1cccc(C(=O)Nc2nnc(C(C)C)s2)c1` the Potency was inconclusive: 2.51 µM [activator, partial curve, poor fit].
With `Cc1ccc(/C=N/NC(=S)NC2CCCCC2)o1` the Potency was active: 4.47 µM.
With `O=C(NC(=S)Nc1ccc(N2CCCCC2)c(Cl)c1)c1ccc2c(c1)OCCO2` the Potency was “inactive”.
